The record followed here is article PMC5062570 (Nature Communications, 2016).

Test [1] concerns the target PF-7802-labelled proteins in ARPE-19 cells (Homo sapiens, UniProt P34931).
For test [2], the target named is PF-7802-labelled proteins in ARPE-19 cells (Homo sapiens, UniProt Q9HCS7). Particulars: protein XAB2 Pre-mRNA-splicing factor SYF1 (Q9HCS7); replicate R1.
Test [3] addresses PF-7802-labelled proteins in ARPE-19 cells (Homo sapiens, UniProt P45880).
The target of test [4] is PF-7802-labelled proteins in ARPE-19 cells (Homo sapiens, UniProt P06576).
Test [5] addresses PF-7802-labelled proteins in ARPE-19 cells (Homo sapiens, UniProt Q96JH7). As to conditions: VCPIP1 Deubiquitinating protein VCIP135 (Q96JH7).
Sequence of UniProt Q96JH7 (Q96JH7 whole entry): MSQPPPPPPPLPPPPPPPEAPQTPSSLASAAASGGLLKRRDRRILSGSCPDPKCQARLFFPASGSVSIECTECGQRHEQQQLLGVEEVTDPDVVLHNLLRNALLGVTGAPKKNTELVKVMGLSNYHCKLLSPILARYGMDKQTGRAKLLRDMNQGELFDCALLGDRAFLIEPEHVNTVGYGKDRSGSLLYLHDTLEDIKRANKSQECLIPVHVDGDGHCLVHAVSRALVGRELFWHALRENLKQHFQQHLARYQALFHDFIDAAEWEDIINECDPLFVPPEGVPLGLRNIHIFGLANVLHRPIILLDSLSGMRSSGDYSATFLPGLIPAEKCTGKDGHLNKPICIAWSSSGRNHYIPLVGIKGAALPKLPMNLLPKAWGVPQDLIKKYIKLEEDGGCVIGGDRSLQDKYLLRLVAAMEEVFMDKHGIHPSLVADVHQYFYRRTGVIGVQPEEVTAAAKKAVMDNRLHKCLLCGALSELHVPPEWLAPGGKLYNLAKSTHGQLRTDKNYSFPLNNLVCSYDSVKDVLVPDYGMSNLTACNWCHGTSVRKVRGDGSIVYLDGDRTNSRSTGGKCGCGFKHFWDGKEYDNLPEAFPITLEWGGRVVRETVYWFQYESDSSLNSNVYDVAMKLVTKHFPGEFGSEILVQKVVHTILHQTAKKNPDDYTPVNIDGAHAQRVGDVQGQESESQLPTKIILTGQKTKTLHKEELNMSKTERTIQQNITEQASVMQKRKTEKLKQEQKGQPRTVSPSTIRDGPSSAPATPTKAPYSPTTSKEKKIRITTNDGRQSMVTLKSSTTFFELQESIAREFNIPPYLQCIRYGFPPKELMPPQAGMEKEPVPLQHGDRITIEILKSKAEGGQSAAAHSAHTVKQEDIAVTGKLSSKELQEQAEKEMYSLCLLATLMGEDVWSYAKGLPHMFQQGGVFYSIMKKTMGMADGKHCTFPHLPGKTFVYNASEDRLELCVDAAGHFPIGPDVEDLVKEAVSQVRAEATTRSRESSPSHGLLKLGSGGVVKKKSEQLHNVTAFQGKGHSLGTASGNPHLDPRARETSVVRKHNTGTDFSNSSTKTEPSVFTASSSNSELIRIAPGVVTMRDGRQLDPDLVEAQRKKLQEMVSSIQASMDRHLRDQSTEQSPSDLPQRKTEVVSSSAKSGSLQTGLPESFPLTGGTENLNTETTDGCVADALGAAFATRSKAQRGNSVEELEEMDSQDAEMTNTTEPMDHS
Test [6] concerns the target PF-7802-labelled proteins in ARPE-19 cells (Homo sapiens, UniProt P51991). Particulars: protein HNRNPA3 Heterogeneous nuclear ribonucleoprotein A3 (P51991); one column per replicate.
Sequence of UniProt P51991 (P51991 whole entry): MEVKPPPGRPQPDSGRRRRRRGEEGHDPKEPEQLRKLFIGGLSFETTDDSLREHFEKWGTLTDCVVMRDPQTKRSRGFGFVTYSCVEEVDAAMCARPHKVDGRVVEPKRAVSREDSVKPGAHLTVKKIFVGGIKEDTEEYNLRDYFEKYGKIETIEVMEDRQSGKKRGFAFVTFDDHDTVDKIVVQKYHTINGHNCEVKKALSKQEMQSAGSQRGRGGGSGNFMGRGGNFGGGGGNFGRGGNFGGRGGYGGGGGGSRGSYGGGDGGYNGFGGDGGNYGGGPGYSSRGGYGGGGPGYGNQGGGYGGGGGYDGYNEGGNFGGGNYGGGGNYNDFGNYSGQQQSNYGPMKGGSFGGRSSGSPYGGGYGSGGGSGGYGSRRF
Test [7] deals with PF-7802-labelled proteins in ARPE-19 cells (Homo sapiens, UniProt Q13263). As to conditions: TRIM28 Transcription intermediary factor 1-beta (Q13263).
Test [8] addresses PF-7802-labelled proteins in ARPE-19 cells (Homo sapiens, UniProt P61019). As to conditions: protein RAB2A Ras-related protein Rab-2A, P61019.
Sequence of UniProt P61019 (P61019 whole entry): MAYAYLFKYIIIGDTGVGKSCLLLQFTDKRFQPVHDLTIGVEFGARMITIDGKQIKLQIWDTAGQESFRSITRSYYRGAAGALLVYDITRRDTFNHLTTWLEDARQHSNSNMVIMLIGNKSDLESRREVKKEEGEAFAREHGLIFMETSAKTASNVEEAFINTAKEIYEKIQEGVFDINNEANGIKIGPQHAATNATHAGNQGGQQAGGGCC
Test [9] concerns the target PF-7802-labelled proteins in ARPE-19 cells (Homo sapiens, UniProt Q96L21). As to conditions: protein RPL10L 60S ribosomal protein L10-like, Q96L21.
Test [10] addresses PF-7802-labelled proteins in ARPE-19 cells (Homo sapiens, UniProt Q15149).
In test [11] the target is PF-7802-labelled proteins in ARPE-19 cells (Homo sapiens, UniProt P67936). As to conditions: TPM4 Tropomyosin alpha-4 chain (P67936).
In test [12] the target is PF-7802-labelled proteins in ARPE-19 cells (Homo sapiens, UniProt P05787). Particulars: protein KRT8 Keratin, type II cytoskeletal 8 (P05787); one column per replicate.
Sequence of UniProt P05787 (P05787 whole entry): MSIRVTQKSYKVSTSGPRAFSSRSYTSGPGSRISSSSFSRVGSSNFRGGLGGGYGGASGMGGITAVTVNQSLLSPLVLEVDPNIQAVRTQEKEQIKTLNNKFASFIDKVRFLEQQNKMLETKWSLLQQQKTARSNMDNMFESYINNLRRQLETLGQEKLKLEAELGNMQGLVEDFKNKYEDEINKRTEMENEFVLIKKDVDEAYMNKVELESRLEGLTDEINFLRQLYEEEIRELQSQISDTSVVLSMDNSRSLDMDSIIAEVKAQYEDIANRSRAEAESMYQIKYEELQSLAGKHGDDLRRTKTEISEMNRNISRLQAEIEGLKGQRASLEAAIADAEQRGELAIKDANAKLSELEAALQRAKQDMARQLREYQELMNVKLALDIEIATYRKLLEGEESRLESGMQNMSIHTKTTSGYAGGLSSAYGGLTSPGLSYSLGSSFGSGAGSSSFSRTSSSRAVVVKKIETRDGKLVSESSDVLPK
The target in test [13] is PF-7802-labelled proteins in ARPE-19 cells (Homo sapiens, UniProt P56134). Particulars: protein ATP5J2 ATP synthase subunit f, mitochondrial (P56134).
Sequence of UniProt P56134 (P56134 whole entry): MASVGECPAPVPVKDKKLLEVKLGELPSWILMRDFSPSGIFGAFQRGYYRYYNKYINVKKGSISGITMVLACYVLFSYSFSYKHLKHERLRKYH
Test [14] concerns the target PF-7802-labelled proteins in ARPE-19 cells (Homo sapiens, UniProt P05166). Particulars: protein PCCB Propionyl-CoA carboxylase beta chain, mitochondrial (P05166); replicates in separate columns.
The target of test [15] is PF-7802-labelled proteins in ARPE-19 cells (Homo sapiens, UniProt O60664). As to conditions: protein PLIN3 Perilipin-3 (O60664); replicates in separate columns.
In test [16] the target is PF-7802-labelled proteins in ARPE-19 cells (Homo sapiens, UniProt O76013). As to conditions: protein KRT36 Keratin, type I cuticular Ha6 (O76013); one column per replicate.
Test [17] addresses PF-7802-labelled proteins in ARPE-19 cells (Homo sapiens, UniProt P07476). As to conditions: protein IVL Involucrin (P07476); one column per replicate.
Sequence of UniProt P07476 (P07476 whole entry): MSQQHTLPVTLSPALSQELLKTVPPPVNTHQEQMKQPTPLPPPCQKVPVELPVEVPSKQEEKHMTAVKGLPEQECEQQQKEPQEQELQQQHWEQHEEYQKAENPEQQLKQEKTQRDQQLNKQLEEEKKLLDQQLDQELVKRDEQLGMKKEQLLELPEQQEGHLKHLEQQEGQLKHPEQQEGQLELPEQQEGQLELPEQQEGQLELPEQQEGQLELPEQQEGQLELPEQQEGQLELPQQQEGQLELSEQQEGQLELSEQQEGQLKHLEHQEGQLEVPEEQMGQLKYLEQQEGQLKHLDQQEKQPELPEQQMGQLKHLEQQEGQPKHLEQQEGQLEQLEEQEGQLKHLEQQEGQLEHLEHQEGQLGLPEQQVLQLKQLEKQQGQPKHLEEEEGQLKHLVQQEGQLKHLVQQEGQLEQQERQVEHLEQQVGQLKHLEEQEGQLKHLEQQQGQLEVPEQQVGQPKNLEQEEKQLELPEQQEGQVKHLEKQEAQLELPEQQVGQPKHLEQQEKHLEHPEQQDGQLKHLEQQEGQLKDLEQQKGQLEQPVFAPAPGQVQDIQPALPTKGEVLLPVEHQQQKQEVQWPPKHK
For test [18], the target named is PF-7802-labelled proteins in ARPE-19 cells (Homo sapiens, UniProt P62851). Particulars: protein RPS25 40S ribosomal protein S25, P62851.
The target in test [19] is PF-7802-labelled proteins in ARPE-19 cells (Homo sapiens, UniProt P24539). As to conditions: protein ATP5F1 ATP synthase subunit b, mitochondrial (P24539).
The target in test [20] is PF-7802-labelled proteins in ARPE-19 cells (Homo sapiens, UniProt O00469). As to conditions: protein PLOD2 Procollagen-lysine,2-oxoglutarate 5-dioxygenase 2 (O00469); replicates in separate columns.
Test [21] concerns the target PF-7802-labelled proteins in ARPE-19 cells (Homo sapiens, UniProt P06702). As to conditions: protein S100A9 Protein S100-A9, P06702.
Sequence of UniProt P06702 (P06702 whole entry): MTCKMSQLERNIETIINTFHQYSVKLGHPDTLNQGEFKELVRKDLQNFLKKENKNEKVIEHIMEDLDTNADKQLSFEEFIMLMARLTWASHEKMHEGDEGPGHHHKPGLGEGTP
In test [22] the target is PF-7802-labelled proteins in ARPE-19 cells (Homo sapiens, UniProt P61513).
Test [23] addresses PF-7802-labelled proteins in ARPE-19 cells (Homo sapiens, UniProt Q96IX5).
Sequence of UniProt Q96IX5 (Q96IX5 whole entry): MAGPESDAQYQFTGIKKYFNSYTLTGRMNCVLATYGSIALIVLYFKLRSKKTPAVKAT
Test [24] deals with PF-7802-labelled proteins in ARPE-19 cells (Homo sapiens, UniProt O00231). Particulars: protein PSMD11 26S proteasome non-ATPase regulatory subunit 11, O00231.
Test [25] deals with PF-7802-labelled proteins in ARPE-19 cells (Homo sapiens, UniProt P07996). Particulars: THBS1 Thrombospondin-1 (P07996).
For test [26], the target named is PF-7802-labelled proteins in ARPE-19 cells (Homo sapiens, UniProt P60953). As to conditions: protein CDC42 Cell division control protein 42 homolog (P60953).
Test [27] deals with PF-7802-labelled proteins in ARPE-19 cells (Homo sapiens, UniProt P19022). Particulars: protein CDH2 Cadherin-2 (P19022).

SMILES strings stand for the structures. Values joined by “and” are separate entries in the source; they are usually repeats but may differ in a detail not shown here. Identical values can stand only once.

Sequence of UniProt P34931 (P34931 whole entry): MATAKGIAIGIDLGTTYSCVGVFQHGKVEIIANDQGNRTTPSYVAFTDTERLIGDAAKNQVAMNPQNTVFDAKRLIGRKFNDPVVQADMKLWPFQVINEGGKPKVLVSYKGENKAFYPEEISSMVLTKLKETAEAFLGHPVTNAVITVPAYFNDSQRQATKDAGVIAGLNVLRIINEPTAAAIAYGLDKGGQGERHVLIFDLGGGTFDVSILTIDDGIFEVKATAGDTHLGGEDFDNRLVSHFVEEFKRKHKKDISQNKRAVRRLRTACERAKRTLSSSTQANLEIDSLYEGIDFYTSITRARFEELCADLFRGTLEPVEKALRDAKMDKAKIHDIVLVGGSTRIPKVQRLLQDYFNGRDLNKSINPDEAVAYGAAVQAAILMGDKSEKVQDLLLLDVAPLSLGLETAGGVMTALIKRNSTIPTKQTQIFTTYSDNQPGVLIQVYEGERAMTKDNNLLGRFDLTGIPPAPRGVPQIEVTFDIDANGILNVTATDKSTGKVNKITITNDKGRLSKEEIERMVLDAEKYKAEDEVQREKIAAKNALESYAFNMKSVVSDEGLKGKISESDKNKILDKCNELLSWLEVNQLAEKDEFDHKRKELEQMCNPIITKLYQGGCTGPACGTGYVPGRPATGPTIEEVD
Sequence of UniProt P45880 (P45880 whole entry): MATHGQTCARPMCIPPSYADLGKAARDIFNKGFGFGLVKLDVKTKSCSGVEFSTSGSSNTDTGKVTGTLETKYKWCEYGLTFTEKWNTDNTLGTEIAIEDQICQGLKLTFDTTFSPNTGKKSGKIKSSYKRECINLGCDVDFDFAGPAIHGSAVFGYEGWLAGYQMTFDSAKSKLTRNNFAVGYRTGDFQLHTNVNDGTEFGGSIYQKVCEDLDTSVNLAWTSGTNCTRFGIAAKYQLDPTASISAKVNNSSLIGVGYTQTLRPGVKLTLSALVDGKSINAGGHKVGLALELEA
Sequence of UniProt Q9HCS7 (Q9HCS7 whole entry): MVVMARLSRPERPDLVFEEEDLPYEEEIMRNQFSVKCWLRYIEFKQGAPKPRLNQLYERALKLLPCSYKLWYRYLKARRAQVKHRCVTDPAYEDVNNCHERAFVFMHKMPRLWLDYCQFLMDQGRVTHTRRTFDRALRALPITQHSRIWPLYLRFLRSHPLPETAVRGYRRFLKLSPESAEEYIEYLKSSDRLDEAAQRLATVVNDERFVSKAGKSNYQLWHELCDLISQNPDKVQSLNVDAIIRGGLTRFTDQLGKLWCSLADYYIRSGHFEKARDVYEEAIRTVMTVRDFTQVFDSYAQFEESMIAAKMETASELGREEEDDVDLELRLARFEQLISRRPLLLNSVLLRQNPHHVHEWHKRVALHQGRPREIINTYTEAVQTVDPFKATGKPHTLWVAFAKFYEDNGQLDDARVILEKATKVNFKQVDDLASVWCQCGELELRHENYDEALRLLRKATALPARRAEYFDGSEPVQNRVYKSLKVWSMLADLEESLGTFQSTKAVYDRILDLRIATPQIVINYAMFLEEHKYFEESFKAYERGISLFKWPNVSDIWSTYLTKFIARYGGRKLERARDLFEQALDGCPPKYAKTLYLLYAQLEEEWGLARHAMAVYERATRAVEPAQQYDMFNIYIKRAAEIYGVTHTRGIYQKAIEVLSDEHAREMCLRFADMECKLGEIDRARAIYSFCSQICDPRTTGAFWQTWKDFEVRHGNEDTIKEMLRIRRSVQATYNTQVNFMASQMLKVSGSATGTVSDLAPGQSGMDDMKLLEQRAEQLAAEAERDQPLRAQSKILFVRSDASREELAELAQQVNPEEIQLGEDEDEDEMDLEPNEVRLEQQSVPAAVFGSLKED

In the case of `CNC1CCN(C(=O)C[C@@H](Cc2ccccc2)C(=O)N[C@@H](CSC)C(=O)N[C@@H](CC2CCCCC2)[C@@H](O)C(=O)OC(C)C)CC1` [CP-108671, reference compound], the “Median SILAC Ratio (Heavy/Light)” value is 1.431 and 0.8416 in test [1] (protein HSPA1L Heat shock 70kDa protein 1-like variant (Q53FA3), one column per replicate); 0.9744 in [2]; 1.195 and 0.8073 in test [3] (VDAC2 Voltage-dependent anion-selective channel protein 2 (P45880)); 0.9647 and 1.021 in [4] (protein ATP5B ATP synthase subunit beta, mitochondrial (P06576)); 18.2648 in test [5]; 1.138 in [6]. Further, the “Median SILAC Ratio (Heavy/Light)” value in test [7] was 0.09404; in test [8], 1.435; in test [9], 1.724; in [10] (protein PLEC Plectin (Q15149), replicates in separate columns) it was 1.104; in [11], 1.679; in test [12], 1.812 and 0.814. In addition, the “SILAC ratio (DMSO/CP-108671)” value was found to be 0.73 in test [1] (tr¦Q53FA3¦Q53FA3_HUMAN HSPA1L Heat shock 70kDa protein 1-like variant); 0.89 in test [3] (P45880 VDAC2 Voltage-dependent anion-selective channel protein 2); 1.01 in [4] (P06576 ATP5B ATP synthase subunit beta, mitochondrial); 0.91 in test [10] (Q15149 PLEC Plectin).

Regarding `Cc1cc([C@H]2C[C@H]3[C@@H](C)SC(N)=N[C@@]3(c3ccc(F)cc3F)CO2)on1` [PF-9283], the “Median SILAC Ratio (Heavy/Light)” value in test [13] was 0.7563; in test [14], 0.8933 and 1.076; in [15], 1.347; in [16], 92.0508; in test [17], 6.011; in test [18], 1.354. The “Median SILAC Ratio (Heavy/Light)” value in test [19] was 1.2909; in test [20], 1.337 and 2.743 and 1.246; in test [21], 43.83; in [22], 0.9932; in test [23], 0.7497; in test [24] it was 1.73. The “Median SILAC Ratio (Heavy/Light)” value was 0.5961 in test [25], 1.688 in [26] and 1.263 in [27].
